Laboratory results published in the supplement of paper PMC7125110.
± gives the standard error. This sample is rich in variants without activity.

B1: glmS ribozyme (parent)
chain: AUAAAAGCGCCAGAACUACAGAAAUGUAGUUGACGAGGAGGAGGUUUAUCGAAUUUUCGGCGGAUGCCUCCAAA

Experiments:
Settings in all cases: with glucosamine-6-phosphate
[1] = variants of: B1; assay: self-cleavage kobs at 640 uM GlcN6P; higher = faster cleavage; RNA array
Method in brief: (§1)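 Sequenced MiSeq chips were the platform: E. coli RNA polymerase transcribed barcoded ribozyme variants on them in situ, and a hybridised Cy3 probe tracked these at 37 °C. After glucosamine-6-phosphate (40 μM to 10 mM) in HEPES/KCl/Mg(OAc)2 buffer was flowed in, tiles were imaged over ~14 h. Signals normalised to baseline and to non-cleaving reference variants were reduced to per-tile medians and fit to one- or two-exponential decays to obtain kobs. kcat and KM were derived through weighted Michaelis–Menten fits across concentrations.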

[2] = variants of: B1; assay: self-cleavage kobs at 2500 uM GlcN6P; higher = faster cleavage; RNA array
Method in brief: as §1

[3] = variants of: B1; assay: self-cleavage kobs at 160 uM GlcN6P; higher = faster cleavage; RNA array
Method in brief: as §1

[4] = variants of: B1; assay: self-cleavage kobs at 10000 uM GlcN6P; higher = faster cleavage; RNA array
Method in brief: as §1

Variant | self-cleavage kobs at 640 uM GlcN6P [1] [s⁻¹] | self-cleavage kobs at 2500 uM GlcN6P [2] [s⁻¹] | self-cleavage kobs at 160 uM GlcN6P [3] [s⁻¹] | self-cleavage kobs at 10000 uM GlcN6P [4] [s⁻¹]
U31C A39G A42C | < 1e-05 | < 1e-05 |  | 
A33U C34U C70G | 0.00168 ± 0.00079 |  |  | 
C34U A39C C50G | < 1e-05 |  |  | 
C34G U49C | < 1e-05 | < 1e-05 | < 1e-05 | < 1e-05
U31C G40U C67U | < 1e-05 |  |  | 
C34A U47C | < 1e-05 | < 1e-05 | < 1e-05 | 
A33C A53U U55A G62C | < 1e-05 | < 1e-05 |  | 
U30G A33C C34A G44U C68U | < 1e-05 | < 1e-05 |  | 
A33G A36G G60C | < 1e-05 |  | < 1e-05 | 
A33C A36G G44U C50A C67U | < 1e-05 |  |  | 
U30G A39G G59U | < 1e-05 |  |  | 
A33U U54A G60C | < 1e-05 | < 1e-05 |  | 
U31C U56G C58A G62A | < 1e-05 |  |  | 
A33G G40A C70U | < 1e-05 | < 1e-05 |  | 
G32C G40U A42U | < 1e-05 |  |  | 
A33C C50A G59C C68U C71U | < 1e-05 |  |  | 
U31G G38A A48C | < 1e-05 | < 1e-05 |  | 
G32U A42G G66U C68U | < 1e-05 |  |  | 
C34A A39G G51C U56G G60U | < 1e-05 | < 1e-05 | < 1e-05 | 
A33G G37A A53G | < 1e-05 |  |  | 
A33C C34A A64U | < 1e-05 | < 1e-05 |  | 
A33U U57C C67G | < 1e-05 |  |  | < 1e-05
U31C G43C C61U | < 1e-05 | < 1e-05 |  | 
A33U A36C G43A C70G | < 1e-05 | < 1e-05 | < 1e-05 | 
U30G A33U A39G G63A | < 1e-05 | < 1e-05 |  | < 1e-05

Variant | self-cleavage kobs at 640 uM GlcN6P [1] [s⁻¹] | self-cleavage kobs at 2500 uM GlcN6P [2] [s⁻¹] | self-cleavage kobs at 160 uM GlcN6P [3] [s⁻¹] | self-cleavage kobs at 10000 uM GlcN6P [4] [s⁻¹]
G32A G37C A64C | < 1e-05 |  |  | < 1e-05
U31A A42U U57A A64G C71A | < 1e-05 |  |  | 
U31C G44A U46G G59A C70U | < 1e-05 | < 1e-05 |  | 
A33U C34U U46G | < 1e-05 | < 1e-05 |  | 
A33U U45G U47A C67A C68G | < 1e-05 | < 1e-05 |  | 
G32U G41A C68A | < 1e-05 |  |  | 
U31A U55G C67U | 0.000859 ± 0.00023 |  |  | 
G32U A39G C71U | 0.000114 ± 3.4e-05 | 0.00038 ± 0.0001 |  | 
G32C A39G G44C U49A | < 1e-05 |  |  | 
A33G G35U G37U U46A G59U G60A | < 1e-05 | < 1e-05 |  | 
A33C U45C U47A A48G | < 1e-05 |  |  | 
U30C G62U U65C | < 1e-05 |  |  | 
U31A G60C G62C | < 1e-05 | < 1e-05 | < 1e-05 | 
A33U G38U G63U | < 1e-05 | < 1e-05 | < 1e-05 | 
U30C G32U C34G G51U | < 1e-05 | < 1e-05 |  | 
U30G G32A A33U U49A C67A | < 1e-05 |  |  | 
A33G A52G C67G C68A | < 1e-05 |  |  | 
C34G G40U | < 1e-05 |  |  | < 1e-05
G32U G41A G59C | < 1e-05 |  |  | 
C34G G44U C50U C71U | < 1e-05 | < 1e-05 |  | 
U31C A42U G44A | < 1e-05 | < 1e-05 |  | 
U31A G40U C67G | < 1e-05 |  |  | 
G32A U45G | 0.000212 ± 4.3e-05 | 0.000204 ± 5.3e-05 |  | 
G32U G43C U45G U46G C70A | < 1e-05 | < 1e-05 |  | 
A33U U49G | < 1e-05 |  | < 1e-05 | 

Variant | self-cleavage kobs at 640 uM GlcN6P [1] [s⁻¹] | self-cleavage kobs at 2500 uM GlcN6P [2] [s⁻¹] | self-cleavage kobs at 160 uM GlcN6P [3] [s⁻¹] | self-cleavage kobs at 10000 uM GlcN6P [4] [s⁻¹]
G32U G37A G59C | < 1e-05 |  |  | 
U30C G44C | < 1e-05 | < 1e-05 | < 1e-05 | 
U30C G44U | < 1e-05 | < 1e-05 |  | < 1e-05
A33U A48G A53U | < 1e-05 |  |  | 
G32C C34U A39U G66A | < 1e-05 | < 1e-05 |  | 
A33G U46G A64C U65G | < 1e-05 | < 1e-05 | < 1e-05 | 
C34A G37U A52U | < 1e-05 | < 1e-05 |  | 
A33G G60C C68G | < 1e-05 |  |  | 
A33G A42C A53G | < 1e-05 | < 1e-05 | < 1e-05 | 
A33G A52G U54G | < 1e-05 |  |  | 
G32U U47A | 8.3e-05 ± 2e-05 | 0.000375 ± 0.00014 | 5.78e-05 ± 1.8e-05 | 0.000493 ± 0.00011
G32C U49C G51U C58U | < 1e-05 |  | < 1e-05 | 
G32A G62U | < 1e-05 |  | < 1e-05 | < 1e-05
C34G G41U U57C | < 1e-05 | < 1e-05 | < 1e-05 | 
A33G C34G C61G | < 1e-05 |  |  | 
G32U G35A G63A U65G C70U | < 1e-05 | < 1e-05 | < 1e-05 | 
U31G G41A A42C U55G | < 1e-05 | < 1e-05 | < 1e-05 | 
G32U A39U G40C U45G U46G U57A A64U | < 1e-05 |  |  | < 1e-05
U31A U69G | 6.47e-05 ± 1.5e-05 | 5.62e-05 ± 1.2e-05 | 4.7e-05 ± 1.3e-05 | 4.26e-05 ± 9.9e-06
U31G G60U U65A | < 1e-05 |  |  | 
U31C A42U A53C C61U C68A | < 1e-05 |  |  | 
C34G G43U G59U | < 1e-05 | < 1e-05 | < 1e-05 | 
U30G G40A G51U G60U C68U C71G | < 1e-05 |  |  | 
G32U G35A U46G U65C C68A | < 1e-05 |  | < 1e-05 | 
G32C C61G U65G | < 1e-05 | < 1e-05 |  | 

Variant | self-cleavage kobs at 640 uM GlcN6P [1] [s⁻¹] | self-cleavage kobs at 2500 uM GlcN6P [2] [s⁻¹] | self-cleavage kobs at 160 uM GlcN6P [3] [s⁻¹] | self-cleavage kobs at 10000 uM GlcN6P [4] [s⁻¹]
U30G G37C A64U | < 1e-05 |  |  | 
A33G G40C G62A | < 1e-05 | < 1e-05 |  | 
G32A G35U A53U | < 1e-05 |  |  | 
C34G G43A C61A U65G | < 1e-05 | < 1e-05 |  | 
G32C A48C G62U | < 1e-05 | < 1e-05 |  | 
G32C A39U U55C U65A | < 1e-05 | < 1e-05 | < 1e-05 | 
U31G G38U A53G C68A C71A | 0.000204 ± 7.6e-05 |  |  | 
U31G U45C A53G | 0.000175 ± 3.2e-05 |  |  | 
C34U G35A C71U | < 1e-05 |  | < 1e-05 | 
A33U C71U | 3.01e-05 ± 7.2e-06 |  |  | 
U31C U56G G60C | < 1e-05 |  | < 1e-05 | < 1e-05
U31C G59C G66U | < 1e-05 |  |  | < 1e-05
G32U U49A G60U C70A | < 1e-05 |  |  | 
U31A A33G G40A C50U G60U | < 1e-05 |  |  | 
C34A G66U | < 1e-05 |  | < 1e-05 | < 1e-05
G32U C61U G63A | < 1e-05 | < 1e-05 |  | 
C34G G40C U46A U49A | < 1e-05 |  |  | 
G32A U65A C71U | 5.38e-05 ± 1.4e-05 | 9.54e-05 ± 2.4e-05 |  | 
A33U A42U G44U A52G U56C | < 1e-05 | < 1e-05 | < 1e-05 | 
U31A A33C U46G C68G | < 1e-05 | < 1e-05 |  | 
G32C A33G U47A U54C A64C C71U | < 1e-05 | < 1e-05 |  | 
A33C A53U G59A U69G | 0.000208 ± 8.8e-05 |  |  | 
U30G A33U G43U G59U | < 1e-05 | < 1e-05 | < 1e-05 | 
G32C C34A U49C | < 1e-05 | < 1e-05 |  | 
A33U G44U A48C | < 1e-05 |  |  | 

Variant | self-cleavage kobs at 640 uM GlcN6P [1] [s⁻¹] | self-cleavage kobs at 2500 uM GlcN6P [2] [s⁻¹] | self-cleavage kobs at 160 uM GlcN6P [3] [s⁻¹] | self-cleavage kobs at 10000 uM GlcN6P [4] [s⁻¹]
U31G U45G U55G G60C | < 1e-05 |  |  | 
A33C G35A U55C | < 1e-05 | < 1e-05 |  | 
U30C U31A U45A | 0.00111 ± 0.00052 | 0.000661 ± 0.0003 |  | 
U31C C50G G59A C71G | 7.63e-05 ± 1.9e-05 |  |  | 
C34G A53G | < 1e-05 | < 1e-05 | < 1e-05 | 
G32U G63A C70U | < 1e-05 |  |  | 
G32U U45G C70A | < 1e-05 |  | < 1e-05 | 
A33C G38C G51C A64C | < 1e-05 |  |  | < 1e-05
A33C G63U C67U C70G | < 1e-05 |  |  | < 1e-05
A33C G35U G38U G44U C58U G60U | < 1e-05 | < 1e-05 | < 1e-05 | 
U31A A36C A39C U54G G66U | < 1e-05 | < 1e-05 |  | 
A33C A52G C67U | < 1e-05 | < 1e-05 |  | 
G32C G40U U65G | < 1e-05 | < 1e-05 | < 1e-05 | 
G32U U46A G63A | < 1e-05 |  |  | 
A33U G44C U46A A53U C68G | < 1e-05 |  |  | 
A33G A48G U49G C58U | < 1e-05 |  | < 1e-05 | 
C34G A39G | < 1e-05 | < 1e-05 | < 1e-05 | < 1e-05
G32U G44U A53G | < 1e-05 |  |  | 
U31G G38C G44A U46C | < 1e-05 |  |  | 
G32C G60A C70G | < 1e-05 |  |  | 
C34A G35C U69A | < 1e-05 | < 1e-05 |  | < 1e-05
